From the supplement of paper PMC8728848
This is one part of the list.

What was measured:
Test in all cases: glycan array binding signal (z-score within array); higher = stronger binding
Conditions in all cases: glycan notation: IUPAC condensed, linker removed
[1] = biological target: Gal(a1-3)Gal(b1-4)GlcNAc(b1-2)Man
Summary of the method: (§1)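 The binding signal is a Z-score computed within each array and averaged over linkers. Arrays of the same protein sequence at different concentrations or buffers were also averaged together. Data originate from 3228 arrays in the Consortium for Functional Glycomics database, kept only where the protein sequence was available.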

[2] = biological target: Gal(a1-3)Gal(b1-4)GlcNAc(b1-2)Man(a1-3)[Gal(a1-3)Gal(b1-4)GlcNAc(b1-2)Man(a1-6)]Man(b1-4)GlcNAc(b1-4)GlcNAc
Summary of the method: as §1

[3] = biological target: Gal(a1-3)Gal(b1-4)GlcNAc(b1-3)GalNAc
Summary of the method: as §1

[4] = biological target: Gal(a1-3)Gal(b1-4)GlcNAc(b1-6)GalNAc
Summary of the method: as §1

[5] = biological target: Gal(a1-3)Gal(b1-4)[Fuc(a1-3)]GlcNAc
Summary of the method: as §1

[6] = biological target: Gal(a1-3)Gal(b1-4)[Fuc(a1-3)]GlcNAc(b1-2)Man(a1-3)[Gal(a1-3)Gal(b1-4)[Fuc(a1-3)]GlcNAc(b1-2)Man(a1-6)]Man(b1-4)GlcNAc(b1-4)GlcNAc
Summary of the method: as §1

Gal(a1-3)GalNAc = biological target: Gal(a1-3)GalNAc
Summary of the method: as §1

[7] = biological target: Gal(a1-3)[Gal(a1-4)]Gal(b1-4)GlcNAc
Summary of the method: as §1

[8] = biological target: Gal(a1-4)Gal(b1-3)GlcNAc(b1-2)Man(a1-3)[Gal(a1-4)Gal(b1-3)GlcNAc(b1-2)Man(a1-6)]Man(b1-4)GlcNAc(b1-4)GlcNAc
Summary of the method: as §1

Gal(a1-4)Gal(b1-4)Glc = biological target: Gal(a1-4)Gal(b1-4)Glc
Summary of the method: as §1

Gal(a1-4)Gal(b1-4)GlcNAc = biological target: Gal(a1-4)Gal(b1-4)GlcNAc
Summary of the method: as §1

[9] = biological target: Gal(a1-4)Gal(b1-4)GlcNAc(b1-2)Man(a1-3)[Gal(a1-4)Gal(b1-4)GlcNAc(b1-2)Man(a1-6)]Man(b1-4)GlcNAc(b1-4)GlcNAc
Summary of the method: as §1

[10] = biological target: Gal(a1-4)Gal(b1-4)GlcNAc(b1-3)Gal(b1-4)Glc
Summary of the method: as §1

Gal(a1-4)GlcNAc = biological target: Gal(a1-4)GlcNAc
Summary of the method: as §1

Gal(a1-6)Glc = biological target: Gal(a1-6)Glc
Summary of the method: as §1

Gal(b1-2)Gal = biological target: Gal(b1-2)Gal
Summary of the method: as §1

Gal(b1-3)Gal = biological target: Gal(b1-3)Gal
Summary of the method: as §1

Gal(b1-3)Gal(b1-4)GlcNAc = biological target: Gal(b1-3)Gal(b1-4)GlcNAc
Summary of the method: as §1

Gal(b1-3)GalNAc = biological target: Gal(b1-3)GalNAc
Summary of the method: as §1

[11] = biological target: Gal(b1-3)GalNAc(a1-3)[Fuc(a1-2)]Gal(b1-4)Glc
Summary of the method: as §1

[12] = biological target: Gal(b1-3)GalNAc(a1-3)[Fuc(a1-2)]Gal(b1-4)GlcNAc
Summary of the method: as §1

Gal(b1-3)GalNAc(b1-3)Gal = biological target: Gal(b1-3)GalNAc(b1-3)Gal
Summary of the method: as §1

[13] = biological target: Gal(b1-3)GalNAc(b1-3)Gal(a1-4)Gal(b1-4)Glc
Summary of the method: as §1

[14] = biological target: Gal(b1-3)GalNAc(b1-4)Gal(b1-4)Glc
Summary of the method: as §1

[15] = biological target: Gal(b1-3)GalNAc(b1-4)[Neu5Ac(a2-3)]Gal(b1-4)Glc
Summary of the method: as §1

Gal(b1-3)GlcNAc = biological target: Gal(b1-3)GlcNAc
Summary of the method: as §1

[16] = biological target: Gal(b1-3)GlcNAc(a1-3)Gal(b1-4)GlcNAc
Summary of the method: as §1

[17] = biological target: Gal(b1-3)GlcNAc(a1-6)Gal(b1-4)GlcNAc
Summary of the method: as §1

Gal(b1-3)GlcNAc(b1-2)Man = biological target: Gal(b1-3)GlcNAc(b1-2)Man
Summary of the method: as §1

[18] = biological target: Gal(b1-3)GlcNAc(b1-2)Man(a1-3)[Gal(b1-3)GlcNAc(b1-2)Man(a1-6)]Man(b1-4)GlcNAc(b1-4)GlcNAc
Summary of the method: as §1

[19] = biological target: Gal(b1-3)GlcNAc(b1-2)Man(a1-3)[Gal(b1-3)GlcNAc(b1-2)Man(a1-6)]Man(b1-4)GlcNAc(b1-4)[Fuc(a1-6)]GlcNAc
Summary of the method: as §1

[20] = biological target: Gal(b1-3)GlcNAc(b1-2)Man(a1-3)[GlcNAc(b1-4)][Gal(b1-3)GlcNAc(b1-2)Man(a1-6)]Man(b1-4)GlcNAc(b1-4)GlcNAc
Summary of the method: as §1

[21] = biological target: Gal(b1-3)GlcNAc(b1-2)[Gal(b1-3)GlcNAc(b1-6)]Man(a1-6)[Gal(b1-3)GlcNAc(b1-2)Man(a1-3)]Man(b1-4)GlcNAc(b1-4)GlcNAc
Summary of the method: as §1

[22] = biological target: Gal(b1-3)GlcNAc(b1-3)Gal(b1-3)GlcNAc
Summary of the method: as §1

[23] = biological target: Gal(b1-3)GlcNAc(b1-3)Gal(b1-4)Glc
Summary of the method: as §1

[24] = biological target: Gal(b1-3)GlcNAc(b1-3)Gal(b1-4)GlcNAc
Summary of the method: as §1

[25] = biological target: Gal(b1-3)GlcNAc(b1-3)Gal(b1-4)GlcNAc(b1-2)Man(a1-3)[Gal(b1-3)GlcNAc(b1-3)Gal(b1-4)GlcNAc(b1-2)Man(a1-6)]Man(b1-4)GlcNAc(b1-4)GlcNAc
Summary of the method: as §1

[26] = biological target: Gal(b1-3)GlcNAc(b1-3)Gal(b1-4)GlcNAc(b1-2)[Gal(b1-3)GlcNAc(b1-3)Gal(b1-4)GlcNAc(b1-6)]Man(a1-6)[Gal(b1-3)GlcNAc(b1-3)Gal(b1-4)GlcNAc(b1-2)Man(a1-3)]Man(b1-4)GlcNAc(b1-4)[Fuc(a1-6)]GlcNAc
Summary of the method: as §1

[27] = biological target: Gal(b1-3)GlcNAc(b1-3)Gal(b1-4)GlcNAc(b1-3)Gal(b1-4)GlcNAc(b1-2)[Gal(b1-3)GlcNAc(b1-3)Gal(b1-4)GlcNAc(b1-3)Gal(b1-4)GlcNAc(b1-6)]Man(a1-6)[Gal(b1-3)GlcNAc(b1-3)Gal(b1-4)GlcNAc(b1-3)Gal(b1-4)GlcNAc(b1-2)Man(a1-3)]Man(b1-4)GlcNAc(b1-4)[Fuc(a1-6)]GlcNAc
Summary of the method: as §1

[28] = biological target: Gal(b1-3)GlcNAc(b1-3)Gal(b1-4)GlcNAc(b1-6)[Gal(b1-3)GlcNAc(b1-3)]Gal(b1-4)Glc
Summary of the method: as §1

[29] = biological target: Gal(b1-3)GlcNAc(b1-3)Gal(b1-4)[Fuc(a1-3)]GlcNAc
Summary of the method: as §1

[30] = biological target: Gal(b1-3)GlcNAc(b1-3)Gal(b1-4)[Fuc(a1-3)]GlcNAc(b1-6)[Gal(b1-3)GlcNAc(b1-3)]Gal(b1-4)Glc
Summary of the method: as §1

[31] = biological target: Gal(b1-3)GlcNAc(b1-3)GalNAc
Summary of the method: as §1

[32] = biological target: Gal(b1-3)GlcNAc(b1-6)Gal(b1-4)GlcNAc
Summary of the method: as §1

[33] = biological target: Gal(b1-3)GlcNAc(b1-6)GalNAc
Summary of the method: as §1

B1: rCnSL-A (Clitocybe nebularis) (protein)
chain: VNPNLPGPNDVFVGFRGTNNIVGAIYEKDGIKDTPLNNGADAEMGPGSYITDGLFTARIFASGSAGNNPGTTATVCKIYASGVQWRGAPKGYIPVAYFGNGPTAEQRRQTYLRTLGLPGTAIRFGNLNTNPGQGPTAPRQMVVPPGPLRSLLKASCFPAADTRLPQTLHYFEKRVDWNIITAADSQTWGH
Question: B1 was tested. Which “glycan array binding signal (z-score)” value [1] did it give?
Answer: The value was -0.224.

Question: And the “glycan array binding signal (z-score)” value [2]?
Answer: Its value is 0.104.

Question: What about the “glycan array binding signal (z-score)” value [3] of the same binder?
Answer: The value was -0.243.

Question: What about the “glycan array binding signal (z-score)” value [4] of the same binder?
Answer: The value was -0.26.

Question: And the “glycan array binding signal (z-score)” value [5]?
Answer: The value was -0.22.

Question: And the “glycan array binding signal (z-score)” value [6]?
Answer: The value was 0.487.

Question: What about the “glycan array binding signal (z-score)” value (Gal(a1-3)GalNAc) of the same binder?
Answer: The value was -0.086.

Question: What about the “glycan array binding signal (z-score)” value [7] of the same binder?
Answer: The value was -0.24.

Question: And the “glycan array binding signal (z-score)” value [8]?
Answer: The value was -0.141.

Question: And the “glycan array binding signal (z-score)” value (Gal(a1-4)Gal(b1-4)Glc)?
Answer: Its value is -0.211.

Question: And the “glycan array binding signal (z-score)” value (Gal(a1-4)Gal(b1-4)GlcNAc)?
Answer: Its value is -0.322.

Question: What about the “glycan array binding signal (z-score)” value [9] of the same binder?
Answer: The value was 0.459.

Question: And the “glycan array binding signal (z-score)” value [10]?
Answer: Its value is -0.286.

Question: What about the “glycan array binding signal (z-score)” value (Gal(a1-4)GlcNAc) of the same binder?
Answer: The value was -0.272.

Question: What about the “glycan array binding signal (z-score)” value (Gal(a1-6)Glc) of the same binder?
Answer: Its value is -0.218.

Question: And the “glycan array binding signal (z-score)” value (Gal(b1-2)Gal)?
Answer: The value was -0.267.

Question: What about the “glycan array binding signal (z-score)” value (Gal(b1-3)Gal) of the same binder?
Answer: Its value is -0.169.

Question: What about the “glycan array binding signal (z-score)” value (Gal(b1-3)Gal(b1-4)GlcNAc) of the same binder?
Answer: Its value is -0.132.

Question: What about the “glycan array binding signal (z-score)” value (Gal(b1-3)GalNAc) of the same binder?
Answer: The value was -0.19.

Question: And the “glycan array binding signal (z-score)” value [11]?
Answer: Its value is -0.239.

Question: What about the “glycan array binding signal (z-score)” value [12] of the same binder?
Answer: The value was -0.222.

Question: And the “glycan array binding signal (z-score)” value (Gal(b1-3)GalNAc(b1-3)Gal)?
Answer: The value was -0.258.

Question: What about the “glycan array binding signal (z-score)” value [13] of the same binder?
Answer: Its value is -0.216.

Question: What about the “glycan array binding signal (z-score)” value [14] of the same binder?
Answer: Its value is -0.268.

Question: What about the “glycan array binding signal (z-score)” value [15] of the same binder?
Answer: The value was -0.199.

Question: What about the “glycan array binding signal (z-score)” value (Gal(b1-3)GlcNAc) of the same binder?
Answer: The value was -0.152.

Question: What about the “glycan array binding signal (z-score)” value [16] of the same binder?
Answer: Its value is 0.566.

Question: What about the “glycan array binding signal (z-score)” value [17] of the same binder?
Answer: The value was 0.459.

Question: What about the “glycan array binding signal (z-score)” value (Gal(b1-3)GlcNAc(b1-2)Man) of the same binder?
Answer: The value was -0.106.

Question: And the “glycan array binding signal (z-score)” value [18]?
Answer: The value was 1.65.

Question: And the “glycan array binding signal (z-score)” value [19]?
Answer: Its value is -0.119.

Question: And the “glycan array binding signal (z-score)” value [20]?
Answer: Its value is 0.307.

Question: What about the “glycan array binding signal (z-score)” value [21] of the same binder?
Answer: The value was 0.503.

Question: What about the “glycan array binding signal (z-score)” value [22] of the same binder?
Answer: Its value is -0.048.

Question: And the “glycan array binding signal (z-score)” value [23]?
Answer: Its value is -0.176.

Question: And the “glycan array binding signal (z-score)” value [24]?
Answer: The value was -0.196.

Question: What about the “glycan array binding signal (z-score)” value [25] of the same binder?
Answer: Its value is 0.501.

Question: And the “glycan array binding signal (z-score)” value [26]?
Answer: The value was 1.95.

Question: What about the “glycan array binding signal (z-score)” value [27] of the same binder?
Answer: Its value is 3.37.

Question: What about the “glycan array binding signal (z-score)” value [28] of the same binder?
Answer: Its value is 0.569.

Question: And the “glycan array binding signal (z-score)” value [29]?
Answer: The value was -0.207.

Question: What about the “glycan array binding signal (z-score)” value [30] of the same binder?
Answer: The value was 0.339.

Question: And the “glycan array binding signal (z-score)” value [31]?
Answer: Its value is -0.217.

Question: And the “glycan array binding signal (z-score)” value [32]?
Answer: Its value is 0.172.

Question: And the “glycan array binding signal (z-score)” value [33]?
Answer: Its value is -0.15.
